# Data taken from the supplement of paper PMC12217912.
# This is one part of the list. Sequences were assembled here from the parent chain. Inactive controls read about 0.05.
# B1: TEV protease; numbered along this chain (parent)
# chain: MGESLFKGPRDYNPISSSICHLTNESDGHTTSLYGIGFGPFIITNKHLFRRNNGTLVVQSLHGVFKVKDTTTLQQHLVDGRDMIIIRMPKDFPPFPQKLKFREPQREERICLVTTNFQTKSMSSMVSDTSCTFPSGDGIFWKHWIQTKDGQCGSPLVSTRDGFIVGIHSASNFTNTNNYFTSVPKNFMELLTNQEAQQWVSGWRLNADSVLWGGHKVFMVKPEEPFQPVKEATQL
# Variants of: B1
# Test: raw area under fraction-flipped curve 0-4 h after induction (AUC4h, not background-subtracted), DNA-recorder readout of cleavage of the substrate (dimensionless); higher = more cleavage of the substrate by the protease variant
# Conditions: temperature: 34 °C; time window: 0-4 h after rhamnose induction
# Method: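 In vivo DNA recorder in E. coli TOP10(DE3) ΔrhaA at 34 °C. Each TEVp single-site mutant (parent TEVp 0) is paired with a single-site variant of the 7-mer TEVs (canonical ENLYFQ|S). The substrate sits between flexible linkers in a Bxb1-sfGFP-TEVs-SsrA fusion, so cleavage stabilises Bxb1 and speeds flipping of a recombination array, read by NGS. The value is the raw area under the fraction-flipped curve over 0-4 h after rhamnose induction (AUC4h), with ≥20 reads per time point. It is not background-subtracted; inactive controls average about 0.047.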
# 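Note: Bxb1 expression induced with 0.2% (w/v) L-rhamnose at OD600 near 0.5, cultures sampled hourly, flipped fraction per protease–substrate barcode pair counted by paired-end Illumina sequencing.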
Variant,area with substrate ENLAFQS,area with substrate ENLCFQS,area with substrate ENLDFQS,area with substrate ENLEFQS,area with substrate ENLFFQS,area with substrate ENLHFQS,area with substrate ENLIFQS,area with substrate ENLKFQS,area with substrate ENLLFQS,area with substrate ENLMFQS,area with substrate ENLNFQS,area with substrate ENLPFQS,area with substrate ENLQFQS,area with substrate ENLRFQS,area with substrate ENLSFQS,area with substrate ENLVFQS,area with substrate ENLWFQS,area with substrate ENLGFQS,area with substrate ENLTFQS
S154C,0.0699,0.0724,0.0653,0.0703,0.0679,0.0706,0.0504,0.0772,0.074,0.0675,0.068,0.0679,0.0501,0.0857,0.0809,0.0896,0.0526,,
S130P,0.0416,0.0389,0.0462,0.0268,0.0502,0.0416,0.0388,0.0368,0.0423,,,0.0539,0.0494,0.0425,0.0478,0.0625,0.05,,
S130I,0.0704,,,0.0613,0.0746,0.084,,0.0829,,0.0628,,,,,0.0765,0.0842,,,
I139P,0.0549,,,0.083,,0.0473,0.0787,,0.0729,0.0729,0.0554,0.0617,,,,,,,
I139W,0.0715,0.0682,0.0708,0.0656,0.0903,,0.0887,0.0671,,0.0508,0.0593,0.0698,0.0627,0.0876,0.058,,0.0724,,
S124T,0.058,0.085,0.0609,,0.0785,,0.097,0.079,0.0512,0.0802,0.0545,,0.066,,,0.0801,0.105,,
S124A,0.0642,,0.0604,,0.0884,,,0.0886,,,0.0561,0.0679,,0.0656,0.0591,0.0793,0.0542,0.0664,
H143D,0.035,0.0799,0.0702,0.0372,,0.0523,,,,,0.0586,0.0731,0.0551,0.0733,0.0603,,,0.066,
Q146I,0.0784,0.0608,0.0589,0.0666,0.106,0.0689,,0.11,0.0651,,,,,0.0979,0.0482,0.0915,,0.0512,
F133C,0.0547,,0.0626,0.0652,,0.0719,,0.0724,0.0905,,0.0524,,0.0853,,0.0636,,,,0.0643
F133V,0.0725,,0.0519,,0.0822,0.0623,,0.0813,,0.0788,0.0675,0.0595,0.0609,,0.0688,,0.0605,0.0717,
S123E,0.0589,,0.0773,0.0475,0.0813,0.0679,0.0871,0.0796,0.0545,0.0793,0.0619,,0.0599,0.0839,0.0601,0.0737,0.0692,,0.0715
G138V,0.0543,0.0727,0.0674,0.0564,0.0715,,0.0615,0.0604,,,0.0392,0.0518,,,,,0.0492,,
G136Y,0.0691,0.0769,0.0641,0.0838,0.0616,,,,0.0777,0.0816,0.0569,0.0492,0.0328,0.0608,,,0.0612,,
K142P,0.0515,0.052,0.0658,0.0594,0.066,0.0552,0.0511,0.0716,,0.0603,0.0622,0.0546,0.0644,,0.0695,,0.046,0.0692,
K142R,0.0723,,0.0549,0.0768,0.0755,,,0.0815,,,0.0914,,,0.0681,0.0392,,0.0541,,
T147G,0.0279,0.073,0.0608,0.0694,,0.0661,,,,,0.0669,,,0.0451,,,0.0524,,
T147W,0.0663,,0.0784,0.0516,0.0639,0.0605,0.0706,0.0764,0.0636,0.0373,0.072,0.0687,0.0681,0.0817,,,0.0619,0.0937,
T147I,0.0499,0.0559,0.0563,0.0574,0.0665,0.048,,0.0639,,0.0907,0.0617,0.0664,0.0492,0.0962,0.0684,,0.0635,0.0648,
C131D,0.0651,,0.0588,0.0597,0.0807,,,,,,,,,,0.0682,,0.0666,0.0611,
G150Q,0.0616,0.0691,,,0.0643,0.0435,0.0616,0.0489,0.0733,0.0322,0.0701,,0.0715,0.0624,0.0517,0.057,0.062,0.081,
G150P,0.0546,0.0676,,,0.0574,0.0659,0.0878,0.0622,0.0569,0.0523,0.0639,0.0595,0.0457,0.0568,0.0605,0.0552,,0.0606,0.0702
D149V,0.0711,,0.0609,0.0655,0.138,,0.0686,0.0625,,,0.0617,0.0507,,,0.0283,,,,
S135G,0.0633,0.0621,0.062,0.0687,0.0804,0.0619,0.066,,,0.0732,0.0722,0.0693,,0.0658,0.041,,,,
S135V,0.0601,0.0667,0.0649,0.0602,0.0692,0.0363,0.071,0.0649,0.0492,0.0577,0.0579,0.0485,0.0656,0.0762,0.0839,,,0.0661,0.059
D128V,0.0825,,0.0539,0.0687,0.152,,,0.119,0.082,0.109,0.0605,0.0628,,0.103,0.0631,,,,0.0674
T129V,0.0694,0.0724,,0.0715,0.0758,0.0749,0.07,0.0739,,,0.0668,0.0697,,0.0723,0.0634,,,,
I145Q,0.0672,0.0679,0.0405,0.0565,0.0572,0.0743,,0.0408,0.06,0.0799,0.0478,,0.0658,0.0594,0.0669,0.0744,0.0718,0.0621,
M122N,0.0609,0.0484,0.059,0.0733,0.0878,0.0677,,0.0767,0.06,,0.051,0.0552,,0.0736,,,,,
